In PubChem BioAssay AID2546 (National Center for Advancing Translational Sciences (NCATS), 2010):
The campaign covered roughly 310,000 compounds. About 11,000 (3.5%) were called active. Inconclusive means that the source gave no clear call. Such entries were picked first, then a sample of the others. Calls follow the shape of the dose curve; as a rule, active = well fitted inhibition curve with a large enough effect; inconclusive = small, poorly fitted or top-dose-only effect, or effect the other way; inactive = flat fitted curve, though single readings scatter. No potency is given beside an inconclusive call; the fits are too rough.

Assay: VP16 counterscreen qHTS for inhibitors of ROR gamma transcriptional activity;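 also: Gal4-VP16 expression switched on by copper sulfate through the metallothionein promoter; nearly all actives have a fitted effect of over 50% in size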
Conditions: Drosophila S2 Gal4-VP16 UAS-luciferase, luminescence, 20 h; series mostly up to 53.6 µM
Potency is read from the fitted curve at half-maximal effect; tags tell the direction and shape of the fitted curve.

Compound	Potency
CC(Oc1cccc2cccnc12)C(=O)N/N=C/c1ccccc1 (configuration not stated)	inactive
O=C(/C=C/c1ccc(Cl)cc1)N1CCN(c2ccc([N+](=O)[O-])c(N3CCOCC3)c2)CC1	inconclusive [inhibitor, single point]
CCCC(=O)Nc1cc2c3c(c1)CC(=O)N3CCC2	inactive
C[C@@H](C(=O)Nc1cccc(S(=O)(=O)N2CCOCC2)c1)N1C(=O)C2CC=CCC2C1=O (some centres not stated)	inconclusive [inhibitor, partial curve]
COc1cc(/C=N/Nc2nc3c(c(=O)n(C)c(=O)n3C)n2Cc2ccccc2)ccc1OC(=O)c1ccco1	active: 17.8 µM
Cc1ccc2[nH]c3c(c2c1)CCC3=O	inactive
O=C(NCc1ccco1)Nc1ccc(Br)cc1	inconclusive [activator, partial curve]
O=C(NC1CCCN(Cc2ccc(Cl)cc2)C1)c1c(F)ccc(F)c1F (configuration not stated)	inactive
COc1cc(S(=O)(=O)Nc2ccc(Br)cc2)ccc1N	inconclusive [inhibitor, single point]
CCN1CC2=C(OC(N)=C(C#N)C2c2ccccc2)/C(=C\c2ccccc2)C1 (configuration not stated)	inactive
COc1ncc2nc(-c3ccc(F)cc3)c(=O)n(CCc3ccccc3)c2n1	inactive
CC1CCc2c(sc3nc(CSc4ncn[nH]4)[nH]c(=O)c23)C1 (configuration not stated)	inconclusive [inhibitor, partial curve]
CC(=O)Nc1ccc(Nc2c([N+](=O)[O-])cc(S(C)(=O)=O)cc2[N+](=O)[O-])cc1	inconclusive [inhibitor, single point]
CC(=O)NC(Cc1c[nH]c2ccccc12)C(=O)Nc1ccc2c(c1)OCO2 (configuration not stated)	inactive
COc1ccccc1/C=C/C(=O)Nc1cccc(C(C)=O)c1	inconclusive [inhibitor, single point]
CCCCNC(=S)N/N=C1\CCCCc2ccccc21	active: 4.47 µM
Cc1ccc2nc(N(CCCN(C)C)C(=O)c3sc4ccccc4c3Cl)sc2c1	inactive
Cc1[nH]c2ccccc2c1/C=N\NC(=O)Cn1nnc(-c2ccccc2)n1	inconclusive [inhibitor, single point]
CC1(OC(=O)c2ccc(Cl)nc2)C(=O)C=C2C=C(C3CC3)OC=C2C1=O (configuration not stated)	inconclusive [inhibitor, single point]
CCN1CCN(CC(=O)Nc2ccc(Cl)c(S(=O)(=O)N(C)C)c2)CC1	inconclusive [inhibitor, single point]
CC(C)Oc1ccc(/C(O)=C2/C(=O)C(=O)N(CCN3CCNCC3)C2c2cccc([N+](=O)[O-])c2)cc1 (configuration not stated)	inactive
COCCn1c(SCc2cc(C(C)=O)ccc2OC)nc2cc(Cl)ccc2c1=O	inconclusive [activator, single point]
COc1ccc(-c2cc3nc(-c4ccccc4)cc(N4CCC5(CC4)OCCO5)n3n2)cc1	inactive
COc1ccc(C2(c3ccc(OC)cc3)NC(=O)N(CC(=O)NCC(F)(F)F)C2=O)cc1	inactive

Compound	Potency
Cc1cccc(NC(=S)N/N=C/c2cccc(O)c2)c1C	active: 14.1 µM
N#Cc1cccc(S(=O)(=O)N2CCN(c3ccnc4cc(Cl)ccc34)CC2)c1	inconclusive [inhibitor, single point]
Cc1onc(-c2ccccc2Cl)c1C(=O)Nc1nnc(-c2ccc(Cl)cc2Cl)s1	inconclusive [inhibitor, single point]
COc1ccc(C(=O)Nc2ccc3ccccc3c2)c(OC)c1	inconclusive [inhibitor, single point]
COc1ccc(C(=O)Nn2c(C)nc3ccccc3c2=O)cc1Br	inactive
CC(C)(C)c1ccc(-n2ncc3c2CCCC3NC(=O)c2cnccn2)cc1 (configuration not stated)	inconclusive [inhibitor, single point]
O=C(c1ccc(Cn2c(=S)[nH]c3ccccc3c2=O)cc1)N1CCN(c2ccccn2)CC1	inconclusive [inhibitor, single point]
N#CCCn1cc(C=C(C#N)C#N)c(-c2ccc(-c3ccccc3)cc2)n1	active: 20 µM
c1ccc(C2=NN(c3ccccc3)CC2)cc1	inactive
O=C(Nc1ccccc1)Nc1ccc(Br)cc1F	inconclusive [activator, single point]
Cc1ccc(N2C(=O)c3ccc(C(=O)O)cc3C2=O)cc1C	inconclusive [inhibitor, partial curve]
COc1cccc(Cn2c(NCc3ccco3)nc3c2c(=O)n(C)c(=O)n3C)c1	active: 2.82 µM
CCCOc1ccc(C2NC(=S)NC(C)=C2C(=O)c2ccccc2)cc1OC (configuration not stated)	inconclusive [inhibitor, single point]
Cc1cccc(/C=C2/S/C(=N/N=C3\CC4CCC3(C)C4(C)C)NC2=O)c1 (configuration not stated)	inconclusive [inhibitor, single point]
COc1cc(C2C(C#N)=C(C)NC3=C2C(=O)CC(C)(C)C3)ccc1O (configuration not stated)	inconclusive [inhibitor, single point]
Cc1ccc(S(=O)(=O)Nc2nc(C)c(C(=O)Nc3ccccc3)s2)cc1	inactive
CN1CCN(c2ncc3nc(-c4cccs4)c(=O)n(Cc4ccc(F)cc4)c3n2)CC1	inactive
Cc1ccccc1C(=O)NC(=S)Nc1sc2c(c1C#N)CCCC2	active: 11.2 µM
O=C(COC(=O)CCCc1nc2ccccc2s1)Nc1ncc(Cl)cc1Cl	inconclusive [inhibitor, partial curve]
CCCCCn1c(=S)[nH]c2ncccc2c1=O	active: 2.82 µM
Cc1ccc(O)c(NC(=O)c2cc(-c3cccs3)on2)c1	inconclusive [inhibitor, single point]
CC(C)CNC(=S)NNC(=O)c1ccccc1OC(F)F	inconclusive [inhibitor, partial curve]
CCCCN(C)S(=O)(=O)c1ccc(C(=O)Nc2nnc(-c3ccco3)o2)cc1	active: 0.708 µM
